This note sets out measurements from patent publication US20200079850A1 (SUTRO BIOPHARMA, published 2020).

Where two headings read alike, the source gives them in different places.

Test [1] deals with PD1 (ELISA antigen of Table 25). Kind of test: PD1 ELISA. A general note: An ELISA detects its analyte on a solid surface through an enzyme-linked reagent.
Test [2] has as its target T1, LAG3 (ELISA antigen of Table 25) (Homo sapiens (Human), UniProt P18627 23-450).
T1 sequence: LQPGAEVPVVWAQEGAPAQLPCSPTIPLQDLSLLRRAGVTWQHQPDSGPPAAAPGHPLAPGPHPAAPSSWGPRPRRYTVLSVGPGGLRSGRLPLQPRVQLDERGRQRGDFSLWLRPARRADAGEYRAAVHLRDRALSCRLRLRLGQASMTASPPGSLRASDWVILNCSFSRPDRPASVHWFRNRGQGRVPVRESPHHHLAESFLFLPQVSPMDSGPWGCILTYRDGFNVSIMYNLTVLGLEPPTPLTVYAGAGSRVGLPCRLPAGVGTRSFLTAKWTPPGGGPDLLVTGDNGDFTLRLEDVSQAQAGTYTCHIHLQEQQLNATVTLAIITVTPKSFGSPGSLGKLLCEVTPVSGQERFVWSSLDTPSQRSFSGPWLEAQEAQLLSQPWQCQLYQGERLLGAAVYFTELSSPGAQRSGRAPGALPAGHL
Kind of test: LAG3 ELISA.

Test [3] addresses T2, human PD-1 expressed on the surface of CHO cells (human, UniProt Q15116 25-288).
T2 construct: I took it as human PD-1; also called CHO-PD1
Kind of test: flow cytometry, CHO-PD1 cells. How it is done:
(§1) CHO-k cells stably expressing PD-1 or LAG3 (human or cynomolgus) on the cell surface were used to assess binding affinity of anti-PD-1/LAG3 bispecific antibody constructs. Cells were seeded at 100,000 cells/well in 100 μL of FACS buffer (1×PBS, 0.5% BSA, 0.1% sodium azide) in 96-well polypropylene plates. The cells were centrifuged at 1.5K rpm and resuspended with test antibodies diluted in FACS buffer and incubated on ice for 1 hour. The cells were washed twice with FACS buffer and incubated on ice for 30 mins with R-Phycoerythrin-AffiniPure F(ab′)2 Fragment Goat Anti-Human IgG (H+L) secondary detection antibody (1:200 dilution, Jackson ImmunoResearch Laboratories, West Grove, Pa.). The cells were washed twice with FACS buffer, fixed in 4% paraformaldehyde in PBS (Santa Cruz Biotechnology; Dallas, Tex.) for 20 mins on ice in the dark, washed twice with FACS buffer, and analyzed using the BD LSR II Flow Cytometer (BD Biosciences; San Jose, Calif.). Data were analyzed using FlowJo (FlowJo, LLC; Ashland, Oreg.) to determine mean fluorescence intensities. Binding constants were calculated using the statistical software, GraphPad Prism (GraphPad Software; La Jolla, Calif.) using the nonlinear regression equation, one site—specific binding with Hill slope. The secondary antibody by itself was used as a control.
(In flow cytometry, cells or beads pass a laser one at a time.)

The target of test [4] is T2, human PD-1 expressed on the surface of …. Put plainly: flow cytometry, CHO-PD1 cells. As to the method: as §1
This is another data set of the same source.

Test [5] addresses T3, human LAG3 expressed on the cell surface (CHO-LAG3, 293T-LAG3 cells) (human, UniProt P18627 23-525).
T3 construct: Stably transfected CHO or HEK293T cells; also called Human LAG3 (CHO); Human LAG3 (293T)
T3 sequence: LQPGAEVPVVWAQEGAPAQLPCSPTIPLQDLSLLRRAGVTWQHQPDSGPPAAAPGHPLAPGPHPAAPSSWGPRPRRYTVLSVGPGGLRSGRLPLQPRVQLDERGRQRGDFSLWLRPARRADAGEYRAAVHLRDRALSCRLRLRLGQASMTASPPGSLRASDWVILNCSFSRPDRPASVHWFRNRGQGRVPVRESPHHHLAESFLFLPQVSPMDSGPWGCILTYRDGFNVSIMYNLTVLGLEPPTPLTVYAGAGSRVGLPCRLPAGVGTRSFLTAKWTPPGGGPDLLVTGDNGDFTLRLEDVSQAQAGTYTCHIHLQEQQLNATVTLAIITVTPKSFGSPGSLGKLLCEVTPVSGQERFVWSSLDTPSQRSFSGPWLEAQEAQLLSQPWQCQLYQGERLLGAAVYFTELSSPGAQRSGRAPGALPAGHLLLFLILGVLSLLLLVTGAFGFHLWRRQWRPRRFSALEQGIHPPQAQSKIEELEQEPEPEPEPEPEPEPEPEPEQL
Kind of test: flow cytometry, 293T-LAG3 cells.

Sequence of PD1 (ELISA antigen of Table 25) (Q15116 25-170): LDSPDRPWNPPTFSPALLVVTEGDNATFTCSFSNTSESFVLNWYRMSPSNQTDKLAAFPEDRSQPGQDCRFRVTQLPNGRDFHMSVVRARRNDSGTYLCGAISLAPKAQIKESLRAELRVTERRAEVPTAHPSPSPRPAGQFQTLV

B1: Construct F: aLAG3 1449-G09.2_H x aPD1 1353-G10_K (two-chain scFvFc, knob-in-hole) (bispecific antibody)
scFv 1: MQVQLVESGGGVVQPGRSLRLSCAASGFTFSSYGMHWVRQAPGKGLEWVAVIWYDGSYKYYADSVKGRFTISRDNSKNTLYLQMNSLRAEDTAVYYCAREEAPENWDYALDVWGQGTTVTVSSAPGPSAPSHRSLPSRAFG[no letters for about 100 residues]SFGPGTKVDIKAAGSDQ[no letters for human IgG1 Fc with C220S P230S P238S T366S L368A Y407V (EU numbers)]
scFv 2: MEVQLVQSGAEVKKPGASVKVSCKASGYRFPHYGISWVRQAPGQGLEWMGWISAYNGNTNYAQKLQGRVTMTTDTSTNTAYMELRSLRSDDTAVYYCARDVDYGTGSGYWGQGTLVTVSSGGGGSGGGGSGGGGSSYELTQPPSVSVSPGQTARITCSGDALPKQYAYWYQQKPGQAPVMVIYKDTERPSGIPERFSGSSSGTKVTLTISGVQAEDEADYYCQSADNSITYRVFGGGTKVTVLAAGSDQ[no letters for human IgG1 Fc with changes]
As a reminder, the EC50 is the midpoint of the concentration-response curve. Low values mean an effect from little substance, high ones a need for much substance. As usually defined, the Kd is the concentration at which binding is half-saturated. Higher therefore signals weaker binding. With B1, the EC50 in test [1] is 1.2 nM; in test [2], 0.44 nM. For the same molecule, the values for the Kd in test [3], in test [4] and in test [5] were 6 nM, 1.1 nM and 15 nM, respectively. In test [4], this molecule had a Bmax of 7200.
